# Hit rate of the full screen: of about 340,000 compounds, about 12,000 (3.5%) were called active. Inconclusive results, whose numbers are uncertain, are shown with a selection of clear calls. The call rests on the fitted dose curve; in most records, active means well fitted inhibition curve with a large enough effect; inconclusive means small, poorly fitted or top-dose-only effect, or another doubt; inactive means no such curve, though single readings can be large or run the other way. No potency is given beside an inconclusive call; the fits are too rough.
# Assay: qHTS Assay for Inhibitors of Hepatitis C Virus (HCV)
# Conditions: Huh7.5.1 HCVcc-Cre (HCVcc is cell-culture hepatitis C virus) infection, luciferase reporter, 44 h; activity change, negative = inhibition: at 41.8 µM (top of the series) unless noted
# How it was run: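 Cells (1,000/well) were plated 4 h before compound, then infected with HCVcc-Cre virus (~0.5 moi). After 44 h further culture, infection was read as luciferase luminescence following a 15 min substrate incubation at room temperature.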
# On the % scale 0 is the no-effect control and ±100 the full control effect; potency means the concentration at half of the fitted maximal effect; tags describe the fitted curve by direction and shape.
Structure (SMILES),Potency,"activity change, negative = inhibition"
CCOc1cc(/C=N/NC(=O)Cn2nc([N+](=O)[O-])cc2C)ccc1OCc1ccc(F)cc1,"inconclusive [inhibitor, single point]",
COc1cc(C)c(NC(=O)Cc2ccsc2)cc1OC,,inactive: 3.66%
Cc1ccc(S(=O)(=O)CCC(=O)Nc2nnc(-c3ccco3)o2)cc1,,inactive: 10.4%
Cc1ccc(SCC2(O)CCN(C(=O)c3ccc(Cl)cc3)CC2)cc1,"inconclusive [inhibitor, single point]",
CCN1CCN(c2oc(-c3ccccc3)nc2S(=O)(=O)c2ccc(C)cc2)CC1,"inconclusive [inhibitor, single point]",
Cc1cc(C)c2c(N)c(C(=O)NN)sc2n1,"inconclusive [inhibitor, single point]",
CC1=CC2=NC(=O)/C(=C\c3cn(C)c4ccccc34)C(=N)N2O1,"inconclusive [inhibitor, partial curve]",
CC(Sc1ccc(S(=O)(=O)N2CCN(C)CC2)cn1)C(=O)Nc1cccc(Cl)c1Cl (stereo not given),"inconclusive [inhibitor, single point]",
CCNS(=O)(=O)c1ccc(NC(=O)Nc2cccc(C(F)(F)F)c2)cc1,"inconclusive [inhibitor, single point]",
CC[C@]12c3[nH]c4ccc(Cl)cc4c3CCN1C(=O)[C@@H](CC(=O)NCCCN(C)C)C[C@@H]2C(=O)N1CCN(C(=O)c2ccco2)CC1,"inconclusive [inhibitor, full curve]",
CCC(=O)Nc1ccc2c(c1)C(=O)N(C1CCCCC1)C2=O,"inconclusive [inhibitor, single point]",
COCCCNC(=S)N1CCN(c2nc3ccccc3s2)CC1,"inconclusive [inhibitor, single point]",
CC(=O)c1ccc(OCCNS(=O)(=O)c2ccc(-n3cnnn3)cc2)cc1,,inactive: -9.98%
Cc1cc(C(=O)Cn2nnc(-c3ccc(Cl)cc3)n2)c(C)n1-c1ccccc1,,inactive: 8.45%
CCOC(=O)c1c(NC(=O)c2ccc(Br)o2)sc(C)c1CC,"inconclusive [inhibitor, partial curve]",
CCC1(c2ccccc2)NC(=O)N(CC(=O)N(CC(=O)Nc2ccccc2C(F)(F)F)Cc2ccco2)C1=O (stereo not given),,inactive: -0.984%
COc1ccc(C(=O)NCC(=O)OCC(=O)Nc2ccc(C)c(S(=O)(=O)N(C)C)c2)cc1OC,"inconclusive [inhibitor, single point]",
Cc1cc(SCC(=O)c2ccc3c(c2)OCO3)nc2ccccc12,"inconclusive [inhibitor, single point]",
COc1ccc(C(=O)NC2CCN(CC(=O)NC3CCCCC3)CC2)cc1,,inactive: 15.3%
Cc1cc(NC(=O)c2ccoc2C)ccc1Br,"inconclusive [inhibitor, single point]",
O=C(OCc1nnc(-c2ccccc2)o1)C12CC3CC(CC(Br)(C3)C1)C2,,inactive: 13%
COc1ccc(-n2nnnc2SCC(=O)c2cc3ccccc3o2)cc1,"inconclusive [inhibitor, single point]",

Structure (SMILES),Potency,"activity change, negative = inhibition"
COc1ccc(/C(N)=N/OC(=O)c2cccs2)cc1OC,"inconclusive [inhibitor, partial curve]",
COc1cc(/C=N/Nc2nnc3c(n2)[nH]c2ccccc23)ccc1O,"inconclusive [inhibitor, full curve, poor fit]",
CCOc1ccc(CCNC(=O)/C=C/c2ccco2)cc1OCC,"inconclusive [inhibitor, single point]",
Cc1cccc2sc(NC(=O)c3ccc(OCC4CCCO4)cc3)nc12 (stereo not given),"inconclusive [inhibitor, partial curve]",
CCOC(=O)C1=CN(Cc2cccc(F)c2)S(=O)(=O)N(C)C1c1ccc(C(F)(F)F)cc1 (stereo not given),"inconclusive [inhibitor, full curve]",
O=C(NCCC1CCCCN1S(=O)(=O)c1ccccc1)C(=O)NCc1ccco1 (stereo not given),"inconclusive [inhibitor, partial curve]",
CCN1C(=O)/C(=C/C=C2\C=CN(CC)c3ccccc32)SC1=S,"inconclusive [inhibitor, partial curve, poor fit]",
O=C(NNC(=O)c1ccccc1O)c1cccc(Br)c1,"inconclusive [inhibitor, single point]",
Cc1ccc(S(=O)(=O)N2CCCC2CNC(=O)C(=O)NC2CCCC2)cc1 (stereo not given),"inconclusive [inhibitor, partial curve]",
COc1ccc(-c2noc(Cc3cccs3)n2)cc1,"inconclusive [inhibitor, single point]",
O=C(CCN1C(=O)/C(=C\c2ccccc2Cl)SC1=S)Nc1cccnc1,"inconclusive [inhibitor, single point]",
COc1cc(C(=O)Nc2ccc(C(C)=O)cc2)c(Br)c(OC)c1OC,,inactive: -14.4%
C=CCNC(=O)c1n[nH]c2c1CC(C(C)(C)CC)CC2 (stereo not given),"inconclusive [inhibitor, single point]",
CCOC(=O)N1CCN(C(=O)CSCC(=O)Nc2nc(-c3ccccc3)cs2)CC1,"inconclusive [inhibitor, partial curve]",
CCCCCCCCNCCS(=O)(=O)NN1CCOCC1,"inconclusive [inhibitor, single point]",
CC(C)(C)OC(=O)N1CCCC(C(=O)Nc2cccc(C(=O)N3CCCCC3)c2)C1 (stereo not given),"inconclusive [inhibitor, single point]",
COc1ccc(C(=O)Nn2c(SCC(=O)c3ccccc3)nc3ccccc3c2=O)cc1,"inconclusive [inhibitor, single point]",
Cc1nc2ncnn2c(N2CCC(C(=O)NC3CCCC3)CC2)c1Cc1ccccc1,"inconclusive [inhibitor, partial curve]",
CCCN1CCN(c2ccc([N+](=O)[O-])cc2C#N)CC1,"inconclusive [inhibitor, single point]",
COCCNC(=O)CSc1ccccc1C(=O)NC1CCSc2ccccc21 (stereo not given),,inactive: -3.78%
C#CCN(Cc1ccco1)C(=O)c1ccc(OC2CCN(Cc3ccccn3)CC2)cc1,"inconclusive [inhibitor, single point]",
CCCCCSc1nc2c(cnn2-c2ccccc2)c(=O)[nH]1,,inactive: -3.26%

Structure (SMILES),Potency,"activity change, negative = inhibition"
CCn1c(SCC(=O)Nc2cccc(C)c2)nc2nc3c(cc2c1=O)COC(C)(C)C3,"inconclusive [inhibitor, partial curve]",
COc1ccc(C2=Nc3cccc4cccc(c34)N2)cc1,"inconclusive [inhibitor, single point]",
Cc1cc(C)cc(C(=O)Nc2cc3c4c(c2)CC(=O)N4CCC3)c1,"inconclusive [inhibitor, partial curve]",
CC(C)CCNC(=O)CN1C(=O)NC(c2ccccc2)(c2ccccc2)C1=O,"inconclusive [inhibitor, partial curve]",
CCC(C)NC(=O)C1(O)c2ccccc2NC(=O)N1c1ccc(C)c(C)c1 (stereo not given),,inactive: 16%
Cc1ccc(F)c(Oc2cc(NN3CCCCC3)c([N+](=O)[O-])cc2[N+](=O)[O-])c1,,inactive: -6.48%
COc1cc(OC)c2c(-c3cccc(-c4ccc(OC)c(F)c4)c3)cc(=O)oc2c1,"inconclusive [inhibitor, full curve, poor fit]",
NS(=O)(=O)c1ccc(N/N=C/c2ccc[nH]2)c([N+](=O)[O-])c1,"inconclusive [inhibitor, single point]",
CCN(CC)S(=O)(=O)c1cc(C)ccc1NC(=S)Nc1cccnc1,active: 11.2 µM,
CCN(CC)C(=O)CSc1nc2ccc(NC(=O)CSc3nnc(COc4ccccc4C)n3C)cc2s1,active: 10 µM,
CCc1ccc(S(=O)(=O)/N=C2\C=C(Nc3cccc(C(=O)O)c3)C(=O)c3ccccc32)cc1,"inconclusive [inhibitor, single point]",
Cc1nc(N2CCOCC2)c2c(C)c(C(=O)Nc3ccccc3C(F)(F)F)sc2n1,"inconclusive [inhibitor, single point]",
Cc1ccccc1C(=O)Oc1cc(N)n(S(=O)(=O)c2ccccc2)n1,,inactive: 14.5%
Cn1cc(C(=O)Cc2ccccc2)c2ccccc21,"inconclusive [inhibitor, single point]",
COc1ccc(S(=O)(=O)N2CCOCC2)cc1NC(=O)CCCOc1ccc(Cl)cc1C,"inconclusive [inhibitor, single point]",
CCCc1c(C(=O)NNc2cccc(Cl)c2)cnn1-c1ccccc1,"inconclusive [inhibitor, partial curve]",
CCOC(=O)c1sc(NC(=O)CCN2C(=O)C3CCCCC3C2=O)cc1C (stereo not given),"inconclusive [inhibitor, single point]",
CCOC(=O)c1c(C)n(C)c2ccc(OC(C)=O)cc12,"inconclusive [inhibitor, full curve, poor fit]",
COc1ccc(C(=O)NC2CCN(Cc3c(F)cccc3Cl)CC2)cc1OC,"inconclusive [inhibitor, partial curve]",
CN(C)/C=C/C(=O)c1ccc(-c2ccc(Cl)cc2Cl)o1,"inconclusive [inhibitor, single point]",
CCC(C)(C)n1nnnc1C(C(C)C)N(Cc1ccco1)Cc1cc2cc3c(cc2[nH]c1=O)OCO3 (stereo not given),active: 22.4 µM,
